Reference: publication PMC12040169 (PLOS Biology, 2025)
The list shows a part of the results.

Each molecule was assayed on T1, C. trachomatis L2/434/Bu expressing GFP (CTL2-GFP). Settings: total inclusion area; 28.5 h, 10 µM; inhibitor.
T1 construct: L2/434/Bu GFP intracellular growth in HeLa cells
Design: species or system HeLa; C. trachomatis total inclusion area by high-content imaging, normalised to DMSO
Outline: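 High-content imaging followed the bulk GFP/resorufin measurement: fixed, Hoechst-stained cells were scored for GFP inclusions and host nuclei per well. Total inclusion area and count served as growth proxies, nuclei number as the viability proxy. MIC calculation matched the bulk assay.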

Row | Compound | % of control remaining
1 | Cc1ccc(S(=O)(=O)CCC(=O)Nc2ccc3sc(C)nc3c2)cc1 [CBK287706] | 85.0606
2 | CC(C)(C)c1cc(C(C)(C)C)cc(S(=O)(=O)CCc2ccccn2)c1 [CBK261073] | 91.6619
3 | CCNc1cc(-c2cccc(N)c2)ncn1 [CBK037731] | 57.553
4 | O=C(c1ccc(-c2ccc(OCC3CCN(c4ncccn4)CC3)cn2)cc1)N1CCOCC1 [CBK173183] | 92.0216
5 | Cc1cc(C)nc(N2CCC(CC(=O)N(C)CC(C)c3ccccc3)CC2)n1 (stereo not drawn) [CBK286105] | 84.4072
6 | Cc1nn(C)c(N2CCN(C(=O)OC(C)(C)C)CC2)c1N [CBK034182] | 6.785
7 | O=C(CCn1cnc2ccccc21)N1CC[C@@H](c2ccccc2)[C@H](O)C1 [CBK283712] | 95.7795
8 | NNC(=O)/C(=C\c1ccccc1)CCO [CBK261215] | 88.8339
9 | Cc1ccccc1/N=C1/NC(=O)/C(=C/c2cccn2-c2ccc(S(N)(=O)=O)cc2)S1 [CBK265681] | 92.436
10 | Cn1cnc(S(=O)(=O)Nc2cccc3cc[nH]c23)c1 [CBK159554] | 92.2434
11 | Cc1ccc(-c2nn(-c3ccccc3)cc2C2CC(c3cccs3)=NN2C(=O)CCC(=O)O)cc1 (stereo not drawn) [CBK296126] | 119.254
12 | Cc1nn(CC(=O)NC(C)C)c(=O)c2cc3ccsc3n12 [CBK284027] | 80.3816
13 | OCc1cccc(-c2nccnc2NCc2ccc(OC(F)(F)F)cc2)c1 [CBK037476] | 114.528
14 | OC(COCc1ccc2c(c1)OCO2)CN1CCN(C(c2ccccc2)c2ccccc2)CC1 (stereo not drawn) [CBK074850C] | 74.0707
15 | Cn1c(-c2c(CCC(=O)O)oc3cc(O)ccc3c2=O)nc2ccccc21 [CBK264831] | 109.434
16 | C/C(C(=O)O)=C(/C)C(=O)N1CCC2(C1)NCCc1c2[nH]c2ccccc12 (stereo not drawn) [CBK046995] | 95.861
17 | Cc1ccc([C@@]2(O)CC[C@@H]3CN(S(=O)(=O)C(C)C)C[C@@H]32)cc1 [CBK285297] | 99.005
18 | O=C1N=C(NCC2CCCCC2)OC1Cc1ccccc1 (stereo not drawn) [CBK067023] | 96.4078
19 | O=C1c2cccc3cccc(c23)C(=O)N1CC1CCN(CC(O)COCc2ccccc2)CC1 (stereo not drawn) [CBK074407C] | 33.1603
20 | Cn1c(=O)[nH]c(=O)c2c1nc(N1CCOCC1)n2CCCSc1nc2ccccc2s1 [CBK269368] | 96.0663
21 | CN(Cc1ccccc1)C(=O)c1c[nH]nc1C1CCCN(Cc2cccc(Cl)c2)C1 (stereo not drawn) [CBK286490] | 66.7739
22 | CCN(C(=O)CCc1nc2ccccc2n1C)C1CCN(C)CC1 [CBK281994] | 91.5022
23 | CS(=O)(=O)Nc1cc2cccnc2c(-c2ccc3c(c2)CCO3)n1 [CBK085705] | 101.914
24 | N#CCCn1cc(C(=O)Oc2ccc(-c3ccccc3)cc2)c(-c2cccc([N+](=O)[O-])c2)n1 [CBK267968] | 82.5441
25 | CCc1nc(C)c(C(C)N(C)CC(=O)NCc2ccco2)s1 (stereo not drawn) [CBK305203] | 77.7794
26 | c1csc(-c2cc3cccnc3n2CCN2CCOCC2)c1 [CBK282718] | 119.29

Row | Compound | % of control remaining
27 | Cc1cc(NC(=O)CN2CC(C)CC(C)C2)nc2c1c(=O)oc1ccccc12 (stereo not drawn) [CBK287620] | 101.99
28 | O=C(Nc1nnc(-c2ccco2)o1)c1ccc(N2C(=O)CCC2=O)cc1 [CBK287423] | 107.166
29 | O=c1[nH]c2ncc(-c3cncc4ccccc34)nc2n1C1CCC(O)CC1 (stereo not drawn) [CBK065013] | 111.886
30 | COCC(=O)N1CCc2cc(-c3cn4ccccc4n3)ccc21 [CBK285274] | 104.398
31 | O=C(NCc1nnc(-c2cccs2)o1)C1(c2cccc(F)c2)CC1 [CBK284639] | 109.471
32 | Cc1ccc(S(=O)(=O)N(C)CC(=O)OCC(=O)c2ccccc2)cc1 [CBK264329] | 120.425
33 | O=C(CC1CC1)NC(c1ccccc1)c1ccccn1 (stereo not drawn) [CBK144108] | 79.5891
34 | Cc1cc(NC(=O)c2ccccc2O)n(C)n1 [CBK000190] | 54.193
35 | N/C(=N/O)c1ccc(-n2cncn2)nc1 [CBK020936] | 16.2139
36 | CCn1c(COc2ccccc2Cl)nnc1SCC(=O)N1c2ccccc2Sc2ccccc21 [CBK265957] | 84.4211
37 | Cc1noc(C)c1C(=O)NC1(c2ccc(F)cc2)CCCC1 [CBK284013] | 98.4339
38 | COc1cccc(OC)c1OCCN1CCC(C(=O)NC(c2ccccc2)c2ccccn2)CC1 (stereo not drawn) [CBK148419] | 103.331
39 | O=C(O)c1cnc(-c2ccccc2)nc1 [CBK261272] | 82.9794
40 | CCN(Cc1ccc(C#N)cc1F)C(=O)Nc1cc(C)nn1C [CBK305730] | 77.1056
41 | O=C(NCc1ccccc1)NC(=O)C1CCN(CCCOc2cccc3ccccc23)CC1 [CBK034856] | 64.3325
42 | Cn1cccc1C(=O)N1CCC(Cc2ccccc2)CC1 [CBK200182] | 53.3382
43 | O=[N+]([O-])c1cccnc1Oc1cccc(Cl)c1Cl [CBK002596] | 96.6116
44 | CCn1c2ccccc2c2cc(CN3CCN(Cc4cccc(F)c4)CC3)ccc21 [CBK263143] | 98.2986
45 | CC(C)[C@H](NC(=O)C1CC(=O)N(c2ccc(F)cc2)C1)C(=O)N1CCC(C(=O)O)CC1 (stereo partly drawn) [CBK286669] | 75.8131
46 | O=C(CNC(=O)c1ccncc1)N/N=C/c1c(O)ccc2ccccc12 [CBK261378] | 32.874
47 | CC(=O)Nc1c(Nc2ccccc2)c2ccccc2oc1=O [CBK261756] | 94.5029
48 | Cc1c(CN(C)CC(=O)Nc2ccc(Br)cc2Cl)cnn1C [CBK304214] | 8.495
49 | COCCn1nnnc1C(c1cc2cc(C)ccc2[nH]c1=O)N1CCN(C(=O)c2ccco2)CC1 (stereo not drawn) [CBK111562] | 104.548
50 | C=CCN1C(=O)CC2(C1=O)C(=O)N(CCn1cnc3c1c(=O)n(C)c(=O)n3C)c1ccc(Cl)cc12 (stereo not drawn) [CBK075410] | 112.425
51 | CCC1CCCCN1C(=O)c1oc2ccccc2c1C (stereo not drawn) [CBK078548] | 112.303
52 | COc1ccc(N2CCN(c3cc(-c4ccc(OC(F)(F)F)cc4)ncn3)CC2)cc1OC [CBK091032] | 109.194

Row | Compound | % of control remaining
53 | Cc1ccccc1CN(CC(=O)NC1CC1)S(=O)(=O)c1ccc(Cl)cc1 [CBK265757] | 149.208
54 | COc1ccc(-c2nc(NC(=O)c3cccc(S(C)(=O)=O)c3)cnc2-c2ccc(F)cc2)cc1 [CBK037110] | 77.0926
55 | Cc1cccc(=O)n1CCC(=O)N1CCCCC1CN1CCOCC1 (stereo not drawn) [CBK306528] | 72.3589
56 | CC(=O)Nc1ccc(CN2CCCC(c3cc4ncccc4[nH]3)C2)cc1 (stereo not drawn) [CBK283402] | 103.611
57 | CCN(CC(=O)NC(C)C)Cc1nc(-c2cccc(C(F)(F)F)c2)no1 [CBK306039] | 94.1522
58 | O=C(NC(=S)Nc1cccc2ncccc12)c1ccc(N2CCOCC2)c([N+](=O)[O-])c1 [CBK267608] | 95.1765
59 | Nc1ncc(-c2cccc(OC(F)(F)F)c2)nc1-c1ccc(CCC(=O)O)cc1 [CBK064071] | 73.1203
60 | CN(C)CCCn1cnc2c1c(=O)[nH]c(=O)n2Cc1ccccc1 [CBK291234] | 112.262
61 | O=C(O)c1cc(NC(=O)C2CCCCC2)cc(C(=O)O)c1 [CBK286972] | 95.6201
62 | O=C(Nc1ccc(I)cc1C(=O)NCCN1CCOCC1)c1ccc(Cl)cc1Cl [CBK266157] | 114.086
63 | C[C@@H](c1ccccc1)n1c(=O)[nH]c2ncc(-c3ccc(C(=O)NC4CCCC4)cc3)nc21 [CBK064542] | 69.5348
64 | Cc1cc(C)nc(NS(=O)(=O)c2ccc(Nc3ncnc(N)c3[N+](=O)[O-])cc2)n1 [CBK267217] | 80.1424
65 | CCc1nc2cc(NC(=O)CCCn3ccnc3C)ccc2n1CC [CBK281609] | 74.6136
66 | COc1ccc(F)cc1-c1ccc(CC2(C(=O)NC3CCCCC3)CCOCC2)cc1 [CBK285538] | 107.786
67 | CN(C)Cc1ccc(C(=O)N2CCc3[nH]c4ccccc4c3C2)cc1 [CBK281847] | 106.497
68 | Cc1ccc2[nH]c(-c3ccc(NCc4cc5ccc(C)cc5[nH]c4=O)cc3)nc2c1 [CBK286156] | 100.053
69 | COc1ccc2c(c1)C1(CC(=O)N(CC(=O)N(C)C)C1=O)C(=O)N2CCCN(C)S(C)(=O)=O (stereo not drawn) [CBK075889] | 99.345
70 | Cc1c(OCc2ccccc2)ccc2c1OC1(CCN(C(=O)c3ccccn3)CC1)CC2=O [CBK156441] | 97.2377
71 | c1ccc(C2=NN=C(N3CCOCC3)SC2)cc1 [CBK006876G] | 31.742
72 | CC(C)C(=O)N[C@H]1CC[C@]2(CC1)CNC(=O)c1ccccc1O2 [CBK281675] | 80.767
73 | Clc1ccc(OCC2CCN(Cc3c[nH]cn3)CC2)cc1 [CBK281543] | 85.393
74 | CCCn1ccnc1CNc1nc2c(s1)c(C)nn2C [CBK307254] | 58.0398
75 | Cc1nnc2ccc(N3CCN(Cc4cscn4)CC3)nn12 [CBK304910] | 111.273
76 | FC(F)(F)c1cccc(-c2nccnc2NCc2ccc3c(c2)OCO3)c1 [CBK037350] | 101.955
77 | O=C(O)c1cc(Cl)c(OCc2cc(-c3ccccc3)no2)c(Cl)c1 [CBK295297] | 110.99
78 | O=C(Nc1cncc(OC2CCNCC2)n1)c1cnccn1 [CBK036372T] | 87.182
